Results on 93 compounds are retold here after PubChem BioAssay AID360 (National Center for Advancing Translational Sciences (NCATS), 2006).

SMILES strings stand for the structures. Screen size: about 48,000 compounds; about 550 (1.1%) were called active. Not shown: some 4% with an inconclusive outcome. Cut-off read from the data, not from the text of the source: active = potency below about 15 µM; inconclusive = mostly about 16 µM to 33 µM; inactive = weaker than that. The list shows a part of the results. Where only a bound is given, the exact number is not on record here.
Potency is the fitted concentration of half-maximal effect.

Chain of UniProt P04062 (P04062 whole entry, looked up): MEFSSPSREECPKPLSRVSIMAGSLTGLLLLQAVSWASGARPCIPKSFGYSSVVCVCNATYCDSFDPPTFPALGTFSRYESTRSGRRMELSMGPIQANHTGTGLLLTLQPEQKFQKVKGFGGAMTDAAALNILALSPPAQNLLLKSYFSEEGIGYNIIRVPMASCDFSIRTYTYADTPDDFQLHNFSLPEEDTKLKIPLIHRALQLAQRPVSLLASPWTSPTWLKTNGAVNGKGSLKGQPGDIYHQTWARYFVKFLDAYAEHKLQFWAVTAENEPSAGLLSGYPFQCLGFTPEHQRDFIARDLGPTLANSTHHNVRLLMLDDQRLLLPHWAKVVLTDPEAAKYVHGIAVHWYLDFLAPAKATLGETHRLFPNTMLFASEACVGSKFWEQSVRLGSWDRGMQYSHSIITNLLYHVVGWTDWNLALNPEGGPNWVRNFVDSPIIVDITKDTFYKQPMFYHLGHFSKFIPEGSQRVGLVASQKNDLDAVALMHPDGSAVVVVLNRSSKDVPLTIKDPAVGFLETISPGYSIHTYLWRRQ

The target in this assay is Lysosomal acid glucosylceramidase (Homo sapiens) (UniProt P04062). Kind of assay: Glucocerebrosidase.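 Note: the screen sought inhibitors.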 As to conditions: purified enzyme, resorufin glucoside fluorescence (screen aimed at inhibitors), 20 min; series mostly up to 77 µM. The method, boiled down:
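Compounds titrated against 0.2 nM normal enzyme, 30 uM resorufin beta-D-glucopyranoside substrate, citrate/phosphate buffer with taurocholate and tween-20, pH 5.9. Reaction ran 20 min at room temperature; fluorescence (Ex 548/Em 600) gave AC50.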
For `O=C(c1ccco1)N(CC1CCCO1)c1nc(-c2ccccc2)cs1` (stereo not drawn), the Potency was inactive: > 76.9 µM.

As for `CCN(CC)S(=O)(=O)N1CCC(C(=O)NC(C)CCc2ccccc2)CC1` (stereo not drawn), the Potency was inactive: > 76.9 µM.

As for `CC1(C)CC(=O)c2sc(N3CCCCC3)nc2C1`, the Potency was inactive: > 76.9 µM.

In the case of `COCCCNC(=O)CSc1nc2ccc(N3CCOCC3)cc2c(=O)n1CCc1ccccc1`, the Potency entry is “inactive”.

With `CCCc1noc(-c2ccc(-c3ccccc3)cc2)n1`, the Potency is inactive: > 76.9 µM.

Turning to `COc1ccc(C2C3=C(CCCC3=O)Nc3nc4ccccc4n32)c(OC)c1OC` (stereo not drawn), the Potency was inactive: > 76.9 µM.

Take `O=S(=O)(Nc1nccs1)c1ccc(NS(=O)(=O)c2cccs2)cc1`: the Potency was inactive: > 76.9 µM.

As to `CCC1(c2ccccc2)NC(=O)N(CC(=O)Nc2ccc3c(c2)OCO3)C1=O` (stereo not drawn), the Potency was inactive: > 76.9 µM.

Turning to `O=C(NCC(c1cccnc1)N1CCN(c2ccccc2)CC1)c1ccco1` (stereo not drawn), the Potency was inactive: > 76.9 µM.

Regarding `O=C(c1ccco1)N1CCC(c2nc(-c3ccc(F)cc3)no2)CC1`, the Potency was inactive: > 76.9 µM.

As for `CCc1nc2ccccc2n1Cc1ccccc1OC`, the Potency was inactive: > 76.9 µM.

With `CCN(C#N)c1nc(N(C)C)nc(N(C)C)n1`, the Potency was inactive: > 76.9 µM.

For the compound `CCN=C1SC(CC(=O)Nc2ccccc2OCC)C(=O)N1CC` (stereo not drawn), the Potency is inactive: > 76.9 µM.

As to `CCn1cc(C2=NCC(C)O2)c2ccccc21` (stereo not drawn), the Potency result was “inactive”.

On to `CC(Oc1ccccc1)C(=O)NCc1cccnc1` (stereo not drawn), for which the Potency was inactive: > 76.9 µM.

In the case of `CCC(C)(C)n1nnnc1C(c1cccc(C#N)c1)N1CCN(c2cccc(C)c2C)CC1` (stereo not drawn), the Potency was inactive: > 76.9 µM.

As for `CN(C)C=Nc1ncc2c3ccccc3n(Cc3ccccc3)c2c1C#N`, the Potency was inactive: > 76.9 µM.

In the case of `CCc1nn(CC(=O)N2CCN(Cc3ccc4c(c3)OCO4)CC2)c(=O)c2cc3occc3n12`, the Potency was inactive: > 76.9 µM.

For `CC1CCCCN1CC(=O)NCc1ccc2c(c1)OCO2` (stereo not drawn), the Potency is inactive: > 76.9 µM.

Take `CCN1C(=O)CC(C(=O)O)SC1=Nc1ccc(OC)cc1` (stereo not drawn): the Potency was inactive: > 76.9 µM.

On to `O=C(O)C1CC(=O)N(c2ccc(Br)cc2)C1` (stereo not drawn), for which the Potency is inactive: > 76.9 µM.

For the compound `Cc1ccccc1OCC(=O)Nc1ccc(N2CCN(C(=O)C(C)C)CC2)c(Cl)c1`, the Potency was active: 2.17 µM.

In the case of `CCCCc1c(O)nc(SCC(=O)N2CCOCC2)[nH]c1=O`, the Potency is inactive: > 76.9 µM.

For the compound `CSCCC(NC(=O)C1CC1)c1nc2ccccc2[nH]1` (stereo not drawn), the Potency was inactive: > 76.9 µM.

For the compound `NC(=O)C1CCN(C(=O)CN2C(=O)c3ccccc3S2(=O)=O)CC1`, the Potency was inactive: > 76.9 µM.

As to `Cc1cc2ccccc2c(=O)n1CC(=O)N(C)c1ccc(F)cc1`, the Potency was inactive: > 76.9 µM.

As for `Cc1oc(-c2ccc(Cl)cc2)nc1CS(=O)CC(=O)NCCCN(C)C1CCCCC1` (stereo not drawn), the Potency is inactive: > 76.9 µM.

Regarding `CCN(CC)c1ccc(C(=O)OCC(=O)c2ccco2)cc1`, the Potency is inactive: > 76.9 µM.

On to `Cc1ccc(S(=O)(=O)C2(C(=O)NC3CCCC3)CC2)cc1`, for which the Potency was inactive: > 76.9 µM.

For `O=C(NCCSc1ccccc1)c1ccccc1`, the Potency is inactive: > 76.9 µM.

Take `NC(=O)COC(=O)CNC(=O)c1ccc(Cl)cc1`: the Potency is inactive: > 76.9 µM.

With `Fc1ccccc1CSc1nnc(Cn2cnc3ccccc32)n1-c1ccccc1`, the Potency is inactive: > 76.9 µM.

Turning to `COc1ccc(Br)cc1CNc1ccc(O)cc1`, the Potency entry was “inactive”.

As to `CC(NC(=O)COc1cccc(Br)c1)C(=O)O` (stereo not drawn), the Potency was inactive: > 76.9 µM.

Take `COc1ccccc1N(C(=O)c1ccco1)C(C(=O)NC1CCCC1)c1cccnc1` (stereo not drawn): the Potency was inactive: > 76.9 µM.

Turning to `c1ccc(-c2nnc(CSc3nncs3)o2)cc1`, the Potency is inactive: > 76.9 µM.

As to `CCOC(=O)c1sc2nc(C)n(CC(=O)NCC3CCCO3)c(=O)c2c1C` (stereo not drawn), the Potency is inactive: > 76.9 µM.

`FC(F)(F)c1nc2ncc(Cl)cc2[nH]1`: the Potency is inactive: > 76.9 µM.

In the case of `O=S(=O)(c1ccccc1C(F)(F)F)N1CCOCC1`, the Potency is inactive: > 76.9 µM.

As to `CCS(=O)(=O)N1CCc2cc(OC)c(OC)cc2C1`, the Potency was inactive: > 76.9 µM.

Consider `CCOC(=O)N1CCN(C(=O)c2cccc(-n3c(=S)[nH]c4cc(Cl)ccc4c3=O)c2)CC1`, for which the Potency is inactive: > 76.9 µM.

In the case of `COc1ccc2nc(N3CCC(C)CC3)c(C#N)cc2c1`, the Potency was inactive: > 76.9 µM.

In the case of `CC(C)(C)n1nc2c(c1NC(=O)c1ccc(S(=O)(=O)N3CCCCC3)cc1)CS(=O)C2` (stereo not drawn), the Potency was inactive: > 76.9 µM.

Consider `Cc1cc(C(=O)COC(=O)C2=COCCO2)c(C)n1-c1ccc2c(c1)OCO2`, for which the Potency was inactive: > 76.9 µM.

Regarding `CCOC(=O)C1CCN(C(=O)C2CCN(S(=O)(=O)c3cc(Cl)ccc3Cl)CC2)CC1`, the Potency is inactive: > 76.9 µM.

`O=C(Nc1ccc(C(=O)N2CCOCC2)cc1)Nc1cccc(Cl)c1`: the Potency was inactive: > 76.9 µM.

`CCOC(=O)CSc1nnc(CNC(=O)c2ccc(OC)cc2)n1C1CCCCC1`: the Potency is inactive: > 76.9 µM.

Turning to `Cc1cc(=O)oc2ccc(OCC(=O)N3CCC(C)CC3)cc12`, the Potency was inactive: > 76.9 µM.

Regarding `COCc1cc(C)n(CC(=O)NC(C)c2ccccc2)c(=O)c1C#N` (stereo not drawn), the Potency was inactive: > 76.9 µM.

In the case of `Cc1ccc(C)c(Cn2c(C(C)O)nc3ccccc32)c1` (stereo not drawn), the Potency was inactive: > 76.9 µM.

Regarding `O=C(CCSc1nnc(-c2ccncc2)o1)Nc1ccc(F)cc1`, the Potency is inactive: > 76.9 µM.

Turning to `O=C(OCc1ccccc1F)c1ccc2c(c1)OCCO2`, the Potency is inactive: > 76.9 µM.

For `CCN(CC)C(=O)CSc1nc2ncc(Br)cc2[nH]1`, the Potency was inactive: > 76.9 µM.

In the case of `CCn1cnc2c1c(=O)n(CC(=O)Nc1cc(C)on1)c(=O)n2Cc1ccccc1`, the Potency was inactive: > 76.9 µM.

Turning to `C1CSC2(N1)C1CC3CC(C1)CC2C3` (stereo not drawn), the Potency was inactive: > 76.9 µM.

On to `COc1ccc(S(=O)(=O)N2CCCC(C(=O)NCc3ccccn3)C2)cc1Cl` (stereo not drawn), for which the Potency was inactive: > 76.9 µM.

In the case of `COc1ccc(NC(=O)CCNC(=O)Cn2cnc3ccccc3c2=O)c(OC)c1`, the Potency is inactive: > 76.9 µM.

As to `c1ccc(CNC2=NCCCCC2)cc1`, the Potency is inactive: > 76.9 µM.

Turning to `CC(=O)C1=C(O)C(=O)N(Cc2ccco2)C1c1ccc(F)cc1` (stereo not drawn), the Potency is inactive: > 76.9 µM.

On to `CCn1c(SC)nc2c(c1=O)SC(C)C2` (stereo not drawn), for which the Potency was inactive: > 76.9 µM.

Regarding `COc1ccccc1N1CCN(C(=O)c2oc3ccccc3c2C)CC1`, the Potency is inactive: > 76.9 µM.

`O=C(c1ccco1)N1CCn2c1nc1ccccc12`: the Potency was inactive: > 76.9 µM.

For the compound `O=C(O)CCc1ccc(-c2ccc(F)cc2)n1NC(=O)c1ccco1`, the Potency is inactive: > 76.9 µM.

`COC(=O)C1=CNC=C(C(=O)OC)C1c1ccccc1Cl`: the Potency is inactive: > 76.9 µM.

With `Cc1c(Cl)cccc1NC(=O)CC1SCCNC1=O` (stereo not drawn), the Potency was inactive: > 76.9 µM.

Regarding `O=C(Nc1ccccc1)NC1(C(=O)NCCCN2CCOCC2)CCCCC1`, the Potency is inactive: > 76.9 µM.

Regarding `CCOC(=O)c1ccc(CSc2nnc(-c3ccncc3)n2N)cc1`, the Potency is inactive: > 76.9 µM.

As to `Clc1ccc(OCCn2cnc3ccccc32)cc1`, the Potency was inactive: > 76.9 µM.

Consider `O=C(Nc1ccccc1-c1ccccc1)NC1CCN(C(=O)N2CCOCC2)CC1`, for which the Potency is inactive: > 76.9 µM.

As to `CC(=O)c1ccc(N2CCN(C(=O)C3(S(=O)(=O)c4ccc(Cl)cc4)CC3)CC2)cc1`, the Potency was inactive: > 76.9 µM.

Regarding `CC(=O)N1CCN(Cc2nc3cc(NS(C)(=O)=O)ccc3n2C)CC1`, the Potency is inactive: > 76.9 µM.

In the case of `Cc1nc(SCC(=O)Nc2ccccc2)c2oc3ccccc3c2n1`, the Potency was inactive: > 76.9 µM.

Consider `Cn1c(SCC(=O)Nc2ccc(N3CCOCC3)cc2)nnc1-c1ccccc1`, for which the Potency was inactive: > 76.9 µM.

With `COc1cccc(C(=O)Cn2c(N3CCOCC3)nc3c2c(=O)n(C)c(=O)n3C)c1`, the Potency was inactive: > 76.9 µM.

Regarding `O=C(O)CCN1C(=O)c2ccccc2C1=O`, the Potency is inactive: > 76.9 µM.

Consider `Cc1cc(N(C(=O)c2ccco2)C(C(=O)NC2CCCCC2)c2ccccc2)ccc1-n1cnnn1` (stereo not drawn), for which the Potency was inactive: > 76.9 µM.

For the compound `COc1cccc(-n2nnnc2SCC(=O)Nc2cccc(C)n2)c1`, the Potency was inactive: > 76.9 µM.

Take `COc1ccccc1N1CCN(C(c2ccc(Cl)cc2)c2nnnn2C(C)(C)C)CC1` (stereo not drawn): the Potency was inactive: > 76.9 µM.

Consider `CN(CC(=O)Nc1ccccc1Cl)C(=O)COC(=O)CNC(=O)c1ccc(Br)o1`, for which the Potency is inactive: > 76.9 µM.

Take `Cc1cc(C)n(-c2nc3ccccc3c(=O)n2OCc2ccc(F)cc2)n1`: the Potency is inactive: > 76.9 µM.

As for `CCN(CCCNC(=O)c1c(C)cc(=O)oc1C)c1ccccc1`, the Potency is inactive: > 76.9 µM.

For `CCOc1cc(C(=O)OCC(=O)NCc2ccco2)cc(OCC)c1OCC`, the Potency entry is “inactive”.

Regarding `C=C(C)COc1ccc2c(C)c(C)c(=O)oc2c1OCC(=C)C`, the Potency was inactive: > 76.9 µM.

Consider `COc1cc(C2NC(=O)NC(c3ccccc3)=C2C(C)=O)ccc1OCC#N` (stereo not drawn), for which the Potency was inactive: > 76.9 µM.

Consider `O=C(Cn1nnc(-c2ccccc2-n2cnnn2)n1)N1CCCCC1`, for which the Potency is inactive: > 76.9 µM.

With `O=S(=O)(NCCc1ccccc1)c1ccc(S(=O)(=O)N2CCCCC2)cc1`, the Potency was inactive: > 76.9 µM.

`O=C(O)c1ccc(COCC(F)(F)F)cc1`: the Potency is inactive: > 76.9 µM.

For `CCOC(=O)C(O)(NC(=O)c1cccnc1)C(F)(F)F` (stereo not drawn), the Potency is inactive: > 76.9 µM.

As for `N#Cc1ccc(COC(=O)c2ccc3c(=O)[nH]c(CN4CCOCC4)nc3c2)cc1`, the Potency was inactive: > 76.9 µM.

With `CCOC(=O)C1CCCN(CCC(=O)Nc2cccc(F)c2)C1` (stereo not drawn), the Potency is inactive: > 76.9 µM.

For the compound `Cc1cccc(OCCC(=O)Nc2ccc(S(=O)(=O)N3CCCC3)cc2)c1`, the Potency was inactive: > 76.9 µM.

In the case of `COc1ccc(CCNC(=O)Cn2nnc(-c3cccc(OC)c3OC)n2)cc1OC`, the Potency is inactive: > 76.9 µM.

As for `COc1ccc(OCCSc2ncccn2)cc1`, the Potency was inactive: > 76.9 µM.
